# Source: PubChem BioAssay AID624296 (National Center for Advancing Translational Sciences (NCATS), 2012)
# Several values for one entry are separate records, joined by “and”; a condition that tells them apart may be missing. Equal entries are not always repeated. About 9,900 (2.8%) of roughly 350,000 compounds were called active. The shares of active, inactive and inconclusive entries below differ from those in the screen. Calls follow the shape of the dose curve; as a rule, active = well fitted activation curve with a large enough effect; inconclusive = small, poorly fitted or top-dose-only effect; inactive = no such curve, though single readings can be large or run the other way. Potencies beside an inconclusive call are fits to weak or partial responses and may not hold up.
# Assay: A quantitative high throughput screen for small molecules that induce DNA re-replication in MCF 10a normal breast cells. Also: nearly all actives have a fitted effect of over 50% in size. As to activity, positive = re-replication: % of control where 0% means no effect.
# Details: MCF 10A DNA re-replication, Hoechst nuclear intensity, 48 h; activity, positive = re-replication: at 46.1 µM (top of the series)
# Potency is read from the fitted curve at half-maximal effect; tags tell the direction and shape of the fitted curve.
SMILES,Potency,"activity, positive = re-replication"
CCOC(=O)C1CCN(C(=O)Nc2cc(Cl)cc(Cl)c2)CC1,"inconclusive: 16.4 µM [activator, single point]",–
O=C(c1ccccc1)c1ccc2ccccc2c1,"inconclusive: 18.4 µM [activator, single point]",–
O=C(O)COc1ccc(/C=C/c2ccc3cccc([N+](=O)[O-])c3n2)cc1,"inconclusive: 18.4 µM [activator, single point]",–
CCc1ccc([C@@H]2CC=C(C(=O)O)[C@H](c3ccc(F)cc3)N2S(=O)(=O)c2ccc(C)cc2)cc1,"inconclusive: 2.06 µM [activator, full curve, poor fit]",–
FC(F)(F)c1nc(SCc2ccc(Cl)cc2Cl)n[nH]1,"inconclusive: 16.4 µM [activator, partial curve]",–
COc1cc(C2/C(=C(/O)c3ccc(OCC(C)C)cc3)C(=O)C(=O)N2CCN(C)C)ccc1O (stereo unspecified),"inconclusive: 2.91 µM [activator, full curve]",–
Cc1c(O[C@@H]2O[C@H](CO)[C@@H](O)[C@H](O)[C@H]2O)c(CO)c(O[C@@H]2O[C@H](CO)[C@@H](O)[C@H](O)[C@H]2O)c2c1O[C@@H](c1ccccc1)C[C@@H]2O,–,inactive: 4.44%
CC[C@H](C)[C@H]1CNC(=O)C(=O)N1CC1CCN(CCc2ccccc2)CC1,–,inactive: -68.7%
CCCn1c(NC(=O)c2cccc(C)c2C)nc2ccccc21,"inconclusive: 23.1 µM [activator, single point]",–
CCC(=O)Nc1ccc(NC(=O)c2ccccc2Cl)nc1,"inconclusive: 29.1 µM [activator, single point]",–
Cc1ccccc1-c1nc(CN2CCC(C(=O)NC3CCCCC3)CC2)c(C)o1,–,inactive: -1.19%
COCCNC(=O)Cn1cc(C(=S)N2CCCCC2)c2ccccc21,"inconclusive: 16.4 µM [activator, single point]",–
N#Cc1ccc(CN2CCN(C(=O)CCNS(=O)(=O)c3ccc(F)c(Cl)c3)CC2)cc1,"inconclusive: 29.1 µM [activator, single point]",–
CCC(C(=O)OCC(=O)NC(=O)NC(C)(C)C)c1ccccc1 (stereo unspecified),"inconclusive: 23.1 µM [activator, partial curve, poor fit]",–
Cc1onc(-c2ccccc2Cl)c1C(=O)Nc1ccc(Cl)cn1,"inconclusive: 16.4 µM [activator, single point]",–
N#CC1=C(SCC(=O)NC2CC2)NC(=O)C(C#N)C12CCCCC2 (stereo unspecified),–,inactive: 19.6%
COc1ccccc1/C=N/Nc1cc(N(C)C)nc(N(C)C)n1,"inconclusive: 8.2 µM [activator, partial curve, poor fit]",–
O=C(NNc1ccccc1)C(=O)N1CCCCC1,"inconclusive: 6.51 µM [activator, full curve]",–
O=C(COc1ccc2ccccc2c1Br)Nc1ccncc1,"inconclusive: 29.1 µM [activator, single point]",–
NS(=O)(=O)c1ccc(NC(=S)NC(=O)c2ccc(-c3ccccc3)cc2)cc1,"inconclusive: 0.82 µM [activator, full curve, poor fit]",–
C/C(=N\Nc1ccc(C#N)cc1[N+](=O)[O-])c1ccc(O)cc1,"inconclusive: 6.51 µM [activator, single point]",–
Cc1cc(C(=O)N/N=C/c2ccc(-c3ccc([N+](=O)[O-])cc3Cl)o2)n[nH]1,active: 18.4 µM,–

SMILES,Potency,"activity, positive = re-replication"
CCN1CCN(c2cc(C)c3cc(NC(=S)N4CCN(c5ccccc5)CC4)ccc3n2)CC1,active: 20.6 µM,–
O=C(Oc1cc(=O)oc2ccccc12)c1ccccc1,active: 7.31 µM,–
COc1cccc(NC(=O)CN(C)C(=O)c2sc3cc(Cl)ccc3c2Cl)c1,"inconclusive: 20.6 µM [activator, single point]",–
Fc1ccccc1Cn1nnc2c(NCc3ccccn3)ncnc21,"inconclusive: 20.6 µM [activator, single point]",–
O=C(Nc1ccc(N2CCN(C(=O)c3ccco3)CC2)c(Cl)c1)c1c(F)c(F)c(F)c(F)c1F,"inconclusive: 16.4 µM [activator, single point]",–
CC(C)c1ccccc1NC(=O)c1ccccc1NC(=O)C1CCCCC1,"inconclusive: 18.4 µM [activator, partial curve, poor fit]",–
COc1cc(-c2nc3ccc(C)cn3c2NCc2ccccc2)ccc1SC1CCCCC1,active: 18.4 µM,–
O=C(CN1CCOCC1)Nc1ccc(Br)cn1,"inconclusive: 29.1 µM [activator, single point]",–
COc1ccc(Cl)cc1NC(=O)CN(C)C(=O)CN1C(=O)NC(C)(C)C1=O,"inconclusive: 29.1 µM [activator, partial curve, poor fit]",–
COc1cc(/C=C2\SC(N)=NC2=O)cc(OC)c1,"inconclusive: 23.1 µM [activator, partial curve, poor fit]",–
Cc1ccc(NCC(=O)N/N=C\c2cccc(O)c2)cc1,–,inactive: -2.12%
Cc1nn(Cc2ccccc2)c(Cl)c1/C=C/C(=O)OC(C(=O)NC(N)=O)C(C)C (stereo unspecified),active: 6.51 µM,–
COC(=O)N1C(=O)[C@](c2ccccc2)(C2CCCC2)N1C(=O)OC,"inconclusive: 20.6 µM [activator, partial curve, poor fit]",–
COc1ccc(/C=C/C(=O)Nc2ccccc2C(=O)O)cc1OC,"inactive and inconclusive: 33.5 µM [activator, partial curve, poor fit]",–
Cc1ccc(SCc2[nH]nc3c2C(C(C)C)C(C#N)=C(N)O3)cc1 (stereo unspecified),"inconclusive: 7.31 µM [activator, partial curve, poor fit]",–
Cc1ccc(N(CC(=O)Nc2ccccc2-c2ccccc2)S(=O)(=O)c2ccccc2)cc1,"inconclusive: 7.31 µM [activator, partial curve]",–
CCCCCCn1c(O)c(/C=C2\C=NN=C2c2ccccc2)sc1=S,"inconclusive: 16.4 µM [activator, single point]",–
COC(=O)c1sccc1NC(=O)c1c(F)c(F)c(F)c(F)c1F,"inconclusive: 18.4 µM [activator, partial curve, poor fit]",–
O=C(Cn1nc(-c2ccccc2)c2ccccc2c1=O)Nc1ccc(F)cc1,"inconclusive: 25.9 µM [activator, partial curve, poor fit]",–
O=C(COC(=O)c1ccc(Br)o1)NCCc1ccccc1,–,inactive: 0.667%
O=C1[C@@H]2Cc3c([nH]c4ccccc34)C(c3ccc([N+](=O)[O-])cc3)N2C(=O)CN1C1CC1 (stereo partly specified),–,inactive: -5.56%
COc1cc(C=c2c3ccccc3n3c2cc(-c2ccccc2)[n+]3C)cc(OC)c1OC,"inconclusive: 6.51 µM [activator, partial curve, poor fit]",–

SMILES,Potency,"activity, positive = re-replication"
S=C(NCc1ccccc1)NCC1COc2ccccc2O1 (stereo unspecified),–,inactive: 13.7%
Cc1cc(C(=O)NNC(=O)c2ccc(C)c([N+](=O)[O-])c2)c(C)o1,–,inactive: -5.85%
CC(=O)Nc1ccc(S(=O)(=O)NNC(=O)C(=O)NNc2ccccn2)cc1,–,inactive: -3.39%
COC(=O)c1c(NC(=O)c2cccc([N+](=O)[O-])c2)sc(C(N)=O)c1C,"inconclusive: 2.59 µM [activator, partial curve, poor fit]",–
O=C1c2ccccc2NC(c2cn[nH]c2-c2ccc(Cl)cc2)N1O (stereo unspecified),–,inactive: 24.7%
O=C(O)c1cccc(S(=O)(=O)N2CCN(C(c3ccccc3)c3ccccc3)CC2)c1,–,inactive: -16.1%
CN1C(=O)/C(=C2\SC(=S)N(C(CCC(=O)O)C(=O)O)C2=O)c2ccccc21 (stereo unspecified),"inconclusive: 16.4 µM [activator, partial curve, poor fit]",–
Cn1cc(Br)c(C(=O)NN2C(=O)C3C4C=CC(C5CC45)C3C2=O)n1 (stereo unspecified),"inconclusive: 0.366 µM [activator, partial curve, poor fit]",–
COC(=O)c1ccc(NC(=O)c2ccccc2NS(C)(=O)=O)cc1,–,inactive: -6.36%
O=C(Cc1csc(Nc2nc(=S)[nH]c3ccccc23)n1)NCc1cccc(Cl)c1,"inconclusive: 10.3 µM [activator, partial curve, poor fit]",–
N#CCOC(=O)[C@H](Cc1c[nH]c2ccccc12)NS(=O)(=O)c1ccc(Cl)cc1,"inconclusive: 23.1 µM [activator, single point]",–
O=C(COc1ccc(C(=O)c2ccccc2)cc1)NCC(=O)Nc1ccccc1Br,"inconclusive: 13 µM [activator, partial curve, poor fit]",–
Cc1cc(OC(=O)c2ccccc2C)c([N+](=O)[O-])c(=O)[nH]1,–,inactive: -1.29%
Cc1ccc2nc(-c3cccc(N)c3)oc2c1,–,inactive: -6.4%
Cc1ccc(-c2nc(Nc3cccc(C)c3)sc2CC(=O)O)cc1,active: 20.6 µM,–
COc1ccc(NC(=O)CNC(=O)Cn2c(C)cc3ccccc3c2=O)cc1OC,"inconclusive: 18.4 µM [activator, partial curve, poor fit]",–
O=C(NCCCn1ccnc1)c1cccc(Br)c1,–,inactive: -4.57%
CN1C(=O)c2cccc3c(S(=O)(=O)N4CCCC4C(=O)O)ccc1c23 (stereo unspecified),–,inactive: 3.85%
OCCCn1c(C2CCCN2c2nc(-c3ccc(Cl)cc3)cs2)nc2cc(Cl)c(Cl)cc21 (stereo unspecified),"inconclusive: 13 µM [activator, partial curve, poor fit]",–
CCC1(c2ccccc2)NC(=O)N(CC#N)C1=O (stereo unspecified),"inconclusive: 29.1 µM [activator, single point]",–
C=C(C)CSc1nnc2[nH]c(=O)cc(N)n12,–,inactive: 0.987%
O=C(Nc1ccc(NC(=O)c2cccnc2Cl)cc1)c1cccc(Cl)c1,"inconclusive: 20.6 µM [activator, single point]",–
